Measurements published in paper PMC4242493.
The other results are listed elsewhere or left out. The list includes weakly bound sequences.

These sequences were tested against MaxL homodimer (UniProt P61244) (assay: universal protein-binding microarray (PBM)). Conditions: PBS-based mixture, 10 nM His-tagged protein dimer, 2% milk, 200 ng/uL BSA, 50 ng/uL salmon testes DNA, 0.02% TX-100; detection with Alexa 488 anti-His …; high values mean tight binding; most listed sequences are background and not binding sites; double strand, one strand shown.
UniProt P61244, sequence (P61244 whole entry): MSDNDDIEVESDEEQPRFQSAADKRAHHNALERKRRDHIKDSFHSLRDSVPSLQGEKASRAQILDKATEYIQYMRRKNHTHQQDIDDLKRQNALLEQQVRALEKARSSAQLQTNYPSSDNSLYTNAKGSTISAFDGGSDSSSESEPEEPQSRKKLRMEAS

Row | Sequence | binding signal (normalized occupancy)
1 | ATTATTAC | 0.0856
2 | AGCTCTGA | 0.0756
3 | TAATATGA | 0.0855
4 | AGAAATTG | 0.072
5 | CCGCATTA | 0.0798
6 | AGCCGACG | 0.0709
7 | CGTAGACA | 0.0736
8 | AAGCTAAA | 0.0675
9 | CACCAGCG | 0.0755
10 | ACTATGAC | 0.0781
11 | GAGACGCC | 0.0686
12 | AAGGAATA | 0.0719
13 | ATATCAAT | 0.0804
14 | ATGTCTTC | 0.0804
15 | CCAATCTC | 0.0826
16 | CTCTGAGC | 0.0688
17 | ACAGTCGG | 0.0709
18 | GAAAGACC | 0.066
19 | CCCGAACA | 0.0756
20 | GTTTCTAA | 0.0721
21 | ATACCCTA | 0.0808
22 | CGTTTGGC | 0.0688
23 | GAGACCTC | 0.0737
24 | CTGCCATA | 0.0828
25 | GCAGTAGC | 0.0723

Row | Sequence | binding signal (normalized occupancy)
26 | GGTCCGTA | 0.07
27 | ATGGTGAG | 0.0835
28 | AAAGCTGC | 0.0725
29 | AGAGGCAA | 0.0735
30 | CAACGGAG | 0.0708
31 | AGAGAGCC | 0.071
32 | GCTCCCTA | 0.0743
33 | ATGAATTG | 0.0772
34 | TGATATAA | 0.0803
35 | TCGGGTAA | 0.0763
36 | ATTAGTTC | 0.0751
37 | ACGGACAG | 0.0742
38 | CCACTCCA | 0.0796
39 | GACGGGCA | 0.0718
40 | CCTGGGCG | 0.0708
41 | ATTAGCTC | 0.0696
42 | ACCGGTTG | 0.0686
43 | TGCAACCA | 0.0739
44 | CAGATATG | 0.0757
45 | CCCTAACC | 0.0758
46 | AGCGAGCC | 0.0665
47 | GGACTGGA | 0.0745
48 | CGGAATAG | 0.0763
49 | TGCAAAAA | 0.0771
50 | CTGCCACC | 0.078

Row | Sequence | binding signal (normalized occupancy)
51 | GGCCCTAC | 0.0696
52 | ATCTGGCG | 0.0737
53 | CGCAAGAA | 0.0699
54 | CGGGCGAG | 0.0699
55 | CCGCATGC | 0.128
56 | CTAATCCC | 0.0815
57 | ACTCTTAT | 0.0803
58 | ACTAAAGC | 0.073
59 | CGGTGCCC | 0.0712
60 | CGAGACAC | 0.0816
61 | GTATTAGA | 0.0813
62 | ACCGTGCG | 0.0828
63 | AACGGTCT | 0.075
64 | CCTGGTGA | 0.0734
65 | CAGACAAC | 0.0742
66 | AGTTACAC | 0.0745
67 | TAACAAGA | 0.0747
68 | AGCGGACG | 0.0671
69 | TGCTAGCA | 0.0864
70 | CATACCTC | 0.0806
71 | CACAAAAA | 0.0719
72 | CGGAATCA | 0.0809
73 | TATTGTAA | 0.0817
74 | AAAGTTTG | 0.0746
75 | ACCGTGCC | 0.0756

Row | Sequence | binding signal (normalized occupancy)
76 | ACCCCAGC | 0.0789
77 | AGGCGCCA | 0.0691
78 | TAAATTAA | 0.073
79 | AATTAAAC | 0.0734
80 | CTGCTACA | 0.0765
81 | ACGGTAGT | 0.073
82 | GAAGCTCA | 0.0681
83 | GACTGGAA | 0.0726
84 | GAAAGAAA | 0.0716
85 | GCCAAAGA | 0.0684
86 | GCCATTCC | 0.0759
87 | TCCTCCGA | 0.0717
88 | ACGTATGG | 0.0832
89 | CTCTCAAC | 0.0722
90 | TAAATCTA | 0.0719
91 | ACGAAAAC | 0.0745
92 | GCACGAAA | 0.078
93 | TCCCCGCA | 0.076
94 | AGGAGTGG | 0.0793
95 | GGCTCTAC | 0.0717
96 | AAACCCCC | 0.0846
97 | AAGTATGC | 0.076
98 | ATGATATA | 0.088
99 | ATGCTTAA | 0.081
100 | GCTAGCCA | 0.0722

Row | Sequence | binding signal (normalized occupancy)
101 | ATGTTGGA | 0.0805
102 | CCGTGTCG | 0.075
103 | CTTCTTGA | 0.075
104 | AACCGGGC | 0.0685
105 | CAAACAAC | 0.0768
106 | CATAGGCC | 0.0736
107 | GAGCCCCC | 0.0723
108 | CACATGCA | 0.138
109 | ATGGTTGG | 0.0735
110 | ATTGCCCA | 0.0761
111 | CCGTAACG | 0.071
112 | CGGTACAA | 0.0766
113 | GTTGTCAA | 0.076
114 | CAAAGATA | 0.0721
115 | AATTGACC | 0.0727
116 | CGCCGAGC | 0.0678
117 | CAGCTTAG | 0.0737
118 | AACGCTGT | 0.0729
119 | AAGAAAAT | 0.0724
120 | CACATTGC | 0.0923
121 | CATAGGCA | 0.0823
122 | CCCTGAGC | 0.0702
123 | CCGTCCAA | 0.0686
124 | CAGAAGAG | 0.0759
125 | AAATCCTG | 0.0711

Row | Sequence | binding signal (normalized occupancy)
126 | AGACCCAG | 0.075
127 | CATAGATA | 0.0841
128 | CAGGTCGG | 0.0699
129 | ATCGGTAA | 0.0719
130 | CTCAACTC | 0.0709
131 | GAGTGGCA | 0.0766
132 | ATCCCGGG | 0.0723
133 | TCGCCAAA | 0.0685
134 | ACGAGAGT | 0.0778
135 | CACACCCA | 0.0877
136 | AGTGGGGC | 0.078
137 | CCCGAGAA | 0.0681
138 | ATCTTACA | 0.078
139 | ATTACGAC | 0.077
140 | CTCCGGGA | 0.068
141 | AAGTTTGT | 0.0719
142 | GAAGGCAC | 0.0754
143 | CGCAGTTA | 0.075
144 | AGCAGCAT | 0.082
145 | TAGTACGA | 0.0745
146 | ACGCGACC | 0.0824
147 | CGGTAACA | 0.0761
148 | ATAAAAAC | 0.0768
149 | CTAATGAA | 0.0783
150 | AGTATCAA | 0.0766

Row | Sequence | binding signal (normalized occupancy)
151 | AAAACACT | 0.0729
152 | GGGTTAAC | 0.0738
153 | GTGTAAGA | 0.077
154 | AAAAGTGC | 0.0747
155 | TCCGTAGA | 0.0698
156 | AACGCAGT | 0.0712
157 | ATCACAAC | 0.0793
158 | ATACATCC | 0.0805
159 | AATATTAG | 0.0746
160 | AGTTTTGA | 0.0696
161 | AGTCACCA | 0.0772
162 | AACCAACT | 0.0709
163 | GTGCTTGA | 0.0758
164 | GGGGGCCA | 0.0752
165 | CTCTTAAA | 0.0712
166 | ATGGCCCC | 0.0839
167 | ATCCAGGG | 0.0695
168 | ATCAGAAG | 0.0773
169 | CTGGAGAC | 0.0695
170 | CCATCTCA | 0.0829
171 | GCAGCTGC | 0.0718
172 | GTATATTA | 0.0866
173 | GGCGAAGA | 0.0728
174 | ATACCGAC | 0.0791
175 | TCGAGCAA | 0.0693

Row | Sequence | binding signal (normalized occupancy)
176 | AGGAATGG | 0.0747
177 | ACGATGGA | 0.0778
178 | TGTGAACA | 0.0858
179 | CACCCTTA | 0.0766
180 | GTACATAC | 0.0862
181 | CCTTGACA | 0.0776
182 | CAAGTAGG | 0.0732
183 | GAAACTGC | 0.0688
184 | CTCGCAGA | 0.0714
185 | ACACTCTC | 0.08
186 | ACTATGTG | 0.0847
187 | AGCTCGAG | 0.0709
188 | TAGGTGAA | 0.0807
189 | GATCTGGC | 0.073
190 | CAGTACTC | 0.0744
191 | ATGGGTTC | 0.0823
192 | AATGAGAC | 0.0746
193 | ACGGCCTA | 0.072
194 | GACTCAAC | 0.0699
195 | AGGGCGTG | 0.0846
196 | CCCCTTCG | 0.0696
197 | CGCCTCAC | 0.074
198 | CGGGTCAC | 0.076
199 | ACAGTAAC | 0.0773
200 | ACCCTCCT | 0.0774

Row | Sequence | binding signal (normalized occupancy)
201 | ATTAGCAA | 0.076
202 | CCTGACGA | 0.0754
203 | CCCCAGCC | 0.0755
204 | AAGAATCT | 0.077
205 | CTCTACAG | 0.0764
206 | AACATTTA | 0.0795
207 | CCCACGAC | 0.0824
208 | CACTGAAG | 0.0655
209 | AAGACCGG | 0.072
210 | GGCACCTA | 0.0739
211 | TACACGGA | 0.0772
212 | ACATCAGT | 0.0736
213 | TACGTTAA | 0.0789
214 | ATGATCGC | 0.0826
215 | CCGAAAGC | 0.0673
216 | AGCCGATA | 0.0735
217 | CCGGGACC | 0.0643
218 | ACCCGTAT | 0.0754
219 | CAGGGGGC | 0.0703
